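Briefly, cells in 96-well plates were exposed to five compound concentrations for 48 h, and endpoints were estimated by linear interpolation. At the GI50, growth is halved.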 A number of entries come with more than one value. The other results are left out here. The source may hold further records. The tests behind the records often covered other concentration ranges, not given here; some values may only mark the edge of a range.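 TGI: total growth inhibition.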
Tests used:
Experiment in all cases: NCI-60 cell line screen, 48 h
ACHN renal = test system: ACHN renal
COLO 205 colon = test system: COLO 205 colon
MALME-3M melanoma = test system: MALME-3M melanoma
NCI/ADR-RES ovarian = test system: NCI/ADR-RES ovarian
NCI-H460 lung = test system: NCI-H460 lung
NCI-H522 lung = test system: NCI-H522 lung
DMS 273 small cell lung = test system: DMS 273 small cell lung
SNB-75 CNS = test system: SNB-75 CNS
CCRF-CEM leukemia = test system: CCRF-CEM leukemia
A498 renal = test system: A498 renal
786-0 renal = test system: 786-0 renal
T-47D breast = test system: T-47D breast
DU-145 prostate = test system: DU-145 prostate
OVCAR-4 ovarian = test system: OVCAR-4 ovarian
CAKI-1 renal = test system: CAKI-1 renal
SK-MEL-5 melanoma = test system: SK-MEL-5 melanoma
MCF7 breast = test system: MCF7 breast
XF 498 CNS = test system: XF 498 CNS
SF-295 CNS = test system: SF-295 CNS
NCI-H23 lung = test system: NCI-H23 lung
HOP-92 NSCLC = test system: HOP-92 NSCLC

NC(=Nc1nc(-c2ccccn2)cc2ccccc12)c1ccccn1
TGI (ACHN renal): 647 nM and 8.85 µM
TGI (COLO 205 colon): 114 nM and > 100 µM
TGI (MALME-3M melanoma): 587 nM and 29.2 µM
TGI (NCI/ADR-RES ovarian): 235 nM and 2.57 µM
TGI (NCI-H460 lung): 464 nM and > 26.6 µM
TGI (NCI-H522 lung): 509 nM and > 29.1 µM
TGI (DMS 273 small cell lung): 551 nM and 13.1 µM
TGI (SNB-75 CNS): 894 nM and 21.4 µM
TGI (CCRF-CEM leukemia): 194 nM and < 14.1 nM
TGI (A498 renal): 380 nM and 8.46 µM
TGI (786-0 renal): 463 nM and 31.7 µM
TGI (T-47D breast): 72 nM and > 20.1 µM
TGI (DU-145 prostate): 545 nM and > 43.9 µM
TGI (OVCAR-4 ovarian): 829 nM and > 100 µM

COc1ccc(/C=C\c2cc(OC)c(OC)c(OC)c2)c(O)c1O
TGI (CAKI-1 renal): 17.7 µM and 1.64 µM
TGI (SK-MEL-5 melanoma): 76.4 nM and 3.27 µM
GI50 (NCI/ADR-RES ovarian): 3.91 µM [1 test] and 60.8 nM [mean of 3 tests]
TGI (NCI/ADR-RES ovarian): 148 µM [1 test] and 1.36 µM [mean of 3 tests]
TGI (MCF7 breast): 1.77 µM and 77.4 µM
TGI (XF 498 CNS): 21.3 µM and 620 nM
TGI (A498 renal): 27.1 µM [mean of 3 tests] and 640 nM [mean of 4 tests]
TGI (SF-295 CNS): 10 µM and 129 nM
TGI (NCI-H23 lung): 27 µM and 951 nM
TGI (HOP-92 NSCLC): 29.8 µM and 1.62 µM

Source: PubChem BioAssay (NCI)
